# Measured values from the supplement of paper PMC8728848.
# Some of the results follow.
# B1: Dectin2 (Homo sapiens), Q6EIG7 (protein)
# chain: MMQEQQPQSTEKRGWLSLRLWSVAGISIALLSACFIVSCVVTYHFTYGETGKRLSELHSYHSSLTCFSEGTKVPAWGCCPASWKSFGSSCYFISSEEKVWSKSEQNCVEMGAHLVVFNTEAEQNFIVQQLNESFSYFLGLSDPQGNNNWQWIDKTPYEKNVRFWHLGEPNHSAEQCASIVFWKPTGWGWNDVICETRRNSICEMNKIYL
# What was measured:
# Assay in all cases: glycan array binding signal (z-score within array); higher = stronger binding
# Conditions in all cases: glycan notation: IUPAC condensed, linker removed
# [1] = target: Gal(b1-3)GlcNAc(b1-2)Man(a1-3)[Gal(b1-3)GlcNAc(b1-2)Man(a1-6)]Man(b1-4)GlcNAc(b1-4)GlcNAc
# Procedure, shortened: (§1)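 The binding signal is a Z-score computed within each array. Data were drawn from 3228 arrays in the Consortium for Functional Glycomics database, restricted to those with a known protein sequence. Scores were averaged over arrays of the same protein sequence at different concentrations or buffers, and over linkers, and negative values can be taken as non-binding.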
# [2] = target: Gal(b1-3)GlcNAc(b1-2)Man(a1-3)[Gal(b1-3)GlcNAc(b1-2)Man(a1-6)]Man(b1-4)GlcNAc(b1-4)[Fuc(a1-6)]GlcNAc
# Procedure, shortened: as §1
# [3] = target: Gal(b1-3)GlcNAc(b1-2)Man(a1-3)[GlcNAc(b1-4)][Gal(b1-3)GlcNAc(b1-2)Man(a1-6)]Man(b1-4)GlcNAc(b1-4)GlcNAc
# Procedure, shortened: as §1
# [4] = target: Gal(b1-3)GlcNAc(b1-2)[Gal(b1-3)GlcNAc(b1-6)]Man(a1-6)[Gal(b1-3)GlcNAc(b1-2)Man(a1-3)]Man(b1-4)GlcNAc(b1-4)GlcNAc
# Procedure, shortened: as §1
# [5] = target: Gal(b1-3)GlcNAc(b1-3)Gal(b1-3)GlcNAc
# Procedure, shortened: as §1
# [6] = target: Gal(b1-3)GlcNAc(b1-3)Gal(b1-4)Glc
# Procedure, shortened: as §1
# [7] = target: Gal(b1-3)GlcNAc(b1-3)Gal(b1-4)GlcNAc
# Procedure, shortened: as §1
# [8] = target: Gal(b1-3)GlcNAc(b1-3)Gal(b1-4)GlcNAc(b1-2)Man(a1-3)[Gal(b1-3)GlcNAc(b1-3)Gal(b1-4)GlcNAc(b1-2)Man(a1-6)]Man(b1-4)GlcNAc(b1-4)GlcNAc
# Procedure, shortened: as §1
# [9] = target: Gal(b1-3)GlcNAc(b1-3)Gal(b1-4)GlcNAc(b1-2)[Gal(b1-3)GlcNAc(b1-3)Gal(b1-4)GlcNAc(b1-6)]Man(a1-6)[Gal(b1-3)GlcNAc(b1-3)Gal(b1-4)GlcNAc(b1-2)Man(a1-3)]Man(b1-4)GlcNAc(b1-4)[Fuc(a1-6)]GlcNAc
# Procedure, shortened: as §1
# [10] = target: Gal(b1-3)GlcNAc(b1-3)Gal(b1-4)GlcNAc(b1-3)Gal(b1-4)GlcNAc(b1-2)[Gal(b1-3)GlcNAc(b1-3)Gal(b1-4)GlcNAc(b1-3)Gal(b1-4)GlcNAc(b1-6)]Man(a1-6)[Gal(b1-3)GlcNAc(b1-3)Gal(b1-4)GlcNAc(b1-3)Gal(b1-4)GlcNAc(b1-2)Man(a1-3)]Man(b1-4)GlcNAc(b1-4)[Fuc(a1-6)]GlcNAc
# Procedure, shortened: as §1
# [11] = target: Gal(b1-3)GlcNAc(b1-3)Gal(b1-4)GlcNAc(b1-6)[Gal(b1-3)GlcNAc(b1-3)]Gal(b1-4)Glc
# Procedure, shortened: as §1
# [12] = target: Gal(b1-3)GlcNAc(b1-3)Gal(b1-4)[Fuc(a1-3)]GlcNAc
# Procedure, shortened: as §1
# [13] = target: Gal(b1-3)GlcNAc(b1-3)Gal(b1-4)[Fuc(a1-3)]GlcNAc(b1-6)[Gal(b1-3)GlcNAc(b1-3)]Gal(b1-4)Glc
# Procedure, shortened: as §1
# [14] = target: Gal(b1-3)GlcNAc(b1-3)GalNAc
# Procedure, shortened: as §1
# [15] = target: Gal(b1-3)GlcNAc(b1-6)Gal(b1-4)GlcNAc
# Procedure, shortened: as §1
# [16] = target: Gal(b1-3)GlcNAc(b1-6)GalNAc
# Procedure, shortened: as §1
# [17] = target: Gal(b1-3)GlcNAc(b1-6)[Gal(b1-3)]GalNAc
# Procedure, shortened: as §1
# Gal(b1-3)GlcNAc6S = target: Gal(b1-3)GlcNAc6S
# Procedure, shortened: as §1
# [18] = target: Gal(b1-3)[Fuc(a1-4)]GlcNAc
# Procedure, shortened: as §1
# [19] = target: Gal(b1-3)[Fuc(a1-4)]GlcNAc(b1-2)Man
# Procedure, shortened: as §1
# [20] = target: Gal(b1-3)[Fuc(a1-4)]GlcNAc(b1-2)Man(a1-3)[Gal(b1-3)[Fuc(a1-4)]GlcNAc(b1-2)Man(a1-6)]Man(b1-4)GlcNAc(b1-4)[Fuc(a1-6)]GlcNAc
# Procedure, shortened: as §1
# [21] = target: Gal(b1-3)[Fuc(a1-4)]GlcNAc(b1-3)Gal(b1-3)[Fuc(a1-4)]GlcNAc
# Procedure, shortened: as §1
# [22] = target: Gal(b1-3)[Fuc(a1-4)]GlcNAc(b1-3)Gal(b1-4)[Fuc(a1-3)]GlcNAc
# Procedure, shortened: as §1
# [23] = target: Gal(b1-3)[Fuc(a1-4)]GlcNAc(b1-6)GalNAc
# Procedure, shortened: as §1
# [24] = target: Gal(b1-3)[GlcNAc(b1-6)]GalNAc
# Procedure, shortened: as §1
# [25] = target: Gal(b1-3)[Neu5Ac(a2-6)]GalNAc
# Procedure, shortened: as §1
# [26] = target: Gal(b1-3)[Neu5Ac(a2-6)]GlcNAc(b1-4)Gal(b1-4)Glc
# Procedure, shortened: as §1
# [27] = target: Gal(b1-3)[Neu5Ac(b2-6)]GalNAc
# Procedure, shortened: as §1
# Gal(b1-4)Gal = target: Gal(b1-4)Gal
# Procedure, shortened: as §1
# [28] = target: Gal(b1-4)GalNAc(a1-3)[Fuc(a1-2)]Gal(b1-4)GlcNAc
# Procedure, shortened: as §1
# [29] = target: Gal(b1-4)GalNAc(b1-3)[Fuc(a1-2)]Gal(b1-4)GlcNAc
# Procedure, shortened: as §1
# Gal(b1-4)Glc = target: Gal(b1-4)Glc
# Procedure, shortened: as §1
# Gal(b1-4)Glc6S = target: Gal(b1-4)Glc6S
# Procedure, shortened: as §1
# Gal(b1-4)GlcNAc = target: Gal(b1-4)GlcNAc
# Procedure, shortened: as §1
# [30] = target: Gal(b1-4)GlcNAc(a1-6)Gal(b1-4)GlcNAc
# Procedure, shortened: as §1
# Gal(b1-4)GlcNAc(b1-2)Man = target: Gal(b1-4)GlcNAc(b1-2)Man
# Procedure, shortened: as §1
# [31] = target: Gal(b1-4)GlcNAc(b1-2)Man(a1-3)Man(b1-4)GlcNAc(b1-4)GlcNAc
# Procedure, shortened: as §1
# [32] = target: Gal(b1-4)GlcNAc(b1-2)Man(a1-3)[Gal(b1-4)GlcNAc(b1-2)Man(a1-6)]Man(b1-4)GlcNAc(b1-4)GlcNAc
# Procedure, shortened: as §1
# [33] = target: Gal(b1-4)GlcNAc(b1-2)Man(a1-3)[Gal(b1-4)GlcNAc(b1-2)Man(a1-6)]Man(b1-4)GlcNAc(b1-4)[Fuc(a1-6)]GlcNAc
# Procedure, shortened: as §1
# [34] = target: Gal(b1-4)GlcNAc(b1-2)Man(a1-3)[Gal(b1-4)GlcNAc(b1-2)Man(a1-6)][Gal(b1-4)GlcNAc(b1-4)]Man(b1-4)GlcNAc(b1-4)[Fuc(a1-6)]GlcNAc
# Procedure, shortened: as §1
# [35] = target: Gal(b1-4)GlcNAc(b1-2)Man(a1-3)[Gal(b1-4)GlcNAc(b1-2)Man(a1-6)][GlcNAc(b1-4)]Man(b1-4)GlcNAc(b1-4)[Fuc(a1-6)]GlcNAc
# Procedure, shortened: as §1
# [36] = target: Gal(b1-4)GlcNAc(b1-2)Man(a1-3)[GlcNAc(b1-2)Man(a1-6)]Man(b1-4)GlcNAc(b1-4)GlcNAc
# Procedure, shortened: as §1
# [37] = target: Gal(b1-4)GlcNAc(b1-2)Man(a1-3)[GlcNAc(b1-4)][Gal(b1-4)GlcNAc(b1-2)Man(a1-6)]Man(b1-4)GlcNAc(b1-4)GlcNAc
# Procedure, shortened: as §1
# [38] = target: Gal(b1-4)GlcNAc(b1-2)Man(a1-3)[Man(a1-6)]Man(b1-4)GlcNAc(b1-4)GlcNAc
# Procedure, shortened: as §1
# [39] = target: Gal(b1-4)GlcNAc(b1-2)Man(a1-6)Man(b1-4)GlcNAc(b1-4)GlcNAc
# Procedure, shortened: as §1
binder,measurement,setting,value
B1,glycan array binding signal (z-score),[1],0.019
same,glycan array binding signal (z-score),[2],-0.07
same,glycan array binding signal (z-score),[3],0.087
same,glycan array binding signal (z-score),[4],-0.034
same,glycan array binding signal (z-score),[5],-0.181
same,glycan array binding signal (z-score),[6],-0.176
same,glycan array binding signal (z-score),[7],-0.194
same,glycan array binding signal (z-score),[8],0.015
same,glycan array binding signal (z-score),[9],1.31
same,glycan array binding signal (z-score),[10],0.899
same,glycan array binding signal (z-score),[11],-0.178
same,glycan array binding signal (z-score),[12],-0.142
same,glycan array binding signal (z-score),[13],-0.191
same,glycan array binding signal (z-score),[14],-0.196
same,glycan array binding signal (z-score),[15],-0.177
same,glycan array binding signal (z-score),[16],-0.187
same,glycan array binding signal (z-score),[17],-0.128
same,glycan array binding signal (z-score),Gal(b1-3)GlcNAc6S,-0.172
same,glycan array binding signal (z-score),[18],-0.15
same,glycan array binding signal (z-score),[19],0.096
same,glycan array binding signal (z-score),[20],0.583
same,glycan array binding signal (z-score),[21],-0.137
same,glycan array binding signal (z-score),[22],-0.163
same,glycan array binding signal (z-score),[23],-0.115
same,glycan array binding signal (z-score),[24],-0.175
same,glycan array binding signal (z-score),[25],0.069
same,glycan array binding signal (z-score),[26],-0.194
same,glycan array binding signal (z-score),[27],-0.187
same,glycan array binding signal (z-score),Gal(b1-4)Gal,-0.187
same,glycan array binding signal (z-score),[28],-0.162
same,glycan array binding signal (z-score),[29],-0.075
same,glycan array binding signal (z-score),Gal(b1-4)Glc,-0.131
same,glycan array binding signal (z-score),Gal(b1-4)Glc6S,-0.188
same,glycan array binding signal (z-score),Gal(b1-4)GlcNAc,-0.133
same,glycan array binding signal (z-score),[30],-0.203
same,glycan array binding signal (z-score),Gal(b1-4)GlcNAc(b1-2)Man,-0.087
same,glycan array binding signal (z-score),[31],-0.158
same,glycan array binding signal (z-score),[32],-0.213
same,glycan array binding signal (z-score),[33],-0.09
same,glycan array binding signal (z-score),[34],-0.192
same,glycan array binding signal (z-score),[35],-0.188
same,glycan array binding signal (z-score),[36],-0.202
same,glycan array binding signal (z-score),[37],-0.139
same,glycan array binding signal (z-score),[38],0.351
same,glycan array binding signal (z-score),[39],-0.163
